The test system of one test is M006X (Human glioma). The test can be described thus: Cytotoxicity testing (MTS) on M006X. Format: cell-based. The method, then:
(§1) Cell lines used were A549 (Human lung carcinoma), HeLa (Human cervical carcinoma), MCF-7 (Human mammary gland adenocarcinoma), CEM (Human T-lymphoblastoid from ALL (Acute lymphoblastic leukemia)), M010B (Human glioma), M006X (Human glioma) and Jurkat (Human T-cell leukemia).
(§2) A series of dilutions were prepared and a wavelength scan of the diluted solution was used to determine the wavelength of maximum absorbance for each compound. Five standardized drug concentrations were scanned at this pre-determined wavelength to obtain an estimate of the compound's extinction coefficient.
(§3) A primary MTS assay was used to test the optimal number of cells for cytotoxicity assays. Cells were trypsinized, counted and introduced into seven lanes of a 96-well plate at different cell numbers (eight replicates per lane). Optimal cell numbers were determined after 72 and 96 hours of growth and were used in subsequent cytotoxicity assays. […] Cell viability was determined using the Cell Titer 96 AQueous One Solution Cell Proliferation Assay (Promega, U.S.A.).
(§4) Fits were performed using a dose-response model ideal for data showing an initial response plateau, a transition region, and a final response plateau.
(§5) [formula] […] Itop is the response obtained at very low/no drug concentration. The data and all parameters were normalized to Itop−Ibot, a measure of the maximum effect of the drug.

Test [1] relates to CCRF-CEM (Human T-lymphoblastoids from ALL). Nature of the test: cells. The class given is cell-based. As to conditions: 72 h, read-out: logIC50 (converted). The text has this:
(§6) A set of seven colchicine derivatives purchased from ChemRoutes was screened against a set of four cell lines obtained from the Cross Cancer Institute's frozen human cell line collection. A full factorial experimental design was used, for a total of 28 cases.
(§7) Cell lines used were A549 (Human lung adenocarcinoma), NCI-H226 (Human lung squamous cell carcinoma), CCRF-CEM (Human T-lymphoblastoids from ALL), and MCF-7 (Human mammary gland adenocarcinoma).
(§8) For each (cell line, compound) pair, the following conditions were used, with each condition being assigned to a lane on a microtiter plate: • a. Seven or eight concentration levels between 1×10^−10 M and 1×10^−3 M. • b. A control with cells and media only. • c. A control with cells, media and DMSO only. The DMSO was at a concentration approximately equal to that used in the highest drug concentration level.
(§9) Additionally, 6-8 replicates (wells) of each condition were done on the plate. Drug solutions were prepared by dissolving the solid compounds in DMSO and then diluting in water. An approximately equal number of cells were introduced into each well of the plate and cells were incubated for 72 hours. An MTS assay was performed and absorbance values were measured with a spectrophotometer. Finally, a log IC50 parameter was calculated by fitting a 4-parameter logistic model to the data using an implementation of the Levenberg-Marquardt algorithm.

Test [2] relates to A549 (Human lung adenocarcinoma). Nature of the test: cells. Format: cell-based. As to conditions: A549, 72 h, read-out: logIC50 (converted).
Text: as §6, §7, §8, §9

Test [3] relates to NCI-H226 (Human lung squamous cell carcinoma). Nature of the test: cells. The class given is cell-based. The following applies: NCI-H226, 72 h, read-out: logIC50 (converted).
Text: as §6, §7, §8, §9

The subject of test [4] is MCF-7 (Human mammary gland adenocarcinoma). Nature of the test: Cytotoxicity testing (MTS) on MCF-7. The class given is cell-based. As to the method:
as §1, §2, §3, §4, §5

The subject of a further test is M010B (Human glioma). Nature of the test: Cytotoxicity testing (MTS) on M010B. Format: cell-based. The method, then: as §1, §2, §3, §4, §5
In the next test the test system is CEM cells. Nature of the test: cells. The class given is cell-based, Human. The following applies: for IC50: 72 h, read-out: IC50 of cell growth inhibition.
The subject of test [5] is CEM (Human T-lymphoblastoid from ALL). The test can be described thus: Cytotoxicity testing (MTS) on CEM. Format: cell-based. As to the method:
as §1, §2, §3, §4, §5

Test [6] relates to A549, HeLa, MCF-7 and CEM cell lines. The test can be described thus: Cytotoxicity, mean over A549, HeLa, MCF-7 and CEM cell lines.
Text: as §1, §3, §5
Cytotoxicity screening was performed on a number of cell lines based on the cancer of origin and differing morphologies.

The conditions of test [7]: read-out: IC50 previously reported; Cragg G. M. et al. 2005; cited from earlier work.
For a further test, the system named is βII or βIII. The following applies: assumed for Kd calculation, Banerjee et al. 1992; cited from earlier work.
The test system of test [8] is A549 (Human lung carcinoma). Nature of the test: Cytotoxicity testing (MTS) on A549. The class given is cell-based. The method, then: as §1, §2, §3, §4, §5
For test [9], the system named is HeLa (Human cervical carcinoma). The test can be described thus: Cytotoxicity testing (MTS) on HeLa. Format: cell-based. The method, then:
as §1, §2, §3, §4, §5

Test [10] has as its system MCF-7 (Human mammary gland adenocarcinoma). Nature of the test: cells. The class given is cell-based. As to conditions: MCF7, 72 h, read-out: logIC50 (converted).
Text: as §6, §7, §8, §9

Where [11] appears, read: Homo sapiens, read-out: logIC50 (converted).

The structures appear in SMILES notation. Where two headings read alike, the source gives them in different places.

In general, koff refers to the rate constant with which the complex falls apart. On to `COc1cc2c(c(OC)c1OC)-c1ccc(OC)c(=O)cc1[C@@H](NC(C)=O)CC2` [Colchicine, N-[(7S)-1,2,3,10-tetramethoxy-9-oxo-5,6,7,9-tetrahydrobenzo[α]heptalen-7-yl]acetamide], for which the IC50 in the test with M006X (Human glioma) (setting [11]) is 4.47 nM; in test [1], 7.94 nM; in test [2], 50.1 nM; in [3], 50.1 nM; in [4] (Homo sapiens, MCF7, read-out: logIC50 (converted)), 14.8 nM; in the test with M010B (Human glioma) (setting [11]) it was 20 nM. Further, the IC50 is 40 nM in the test on CEM cells (Homo sapiens, CCRF-CEM); 9.33 nM in test [5] (Homo sapiens, CCRF-CEM, read-out: logIC50 (converted)); 50.1 nM in test [6] (Homo sapiens, read-out: IC50 [log10 M] (mean logIC50) (converted)); 29 ± 2.2 nM in test [7]; 347 nM in test [8] (Homo sapiens, A549, read-out: logIC50 (converted)); 138 nM in test [9] (setting [11]). Besides, in the test on βII or βIII, the dissociation rate constant (koff) is 0.00025 s⁻¹.

`COc1c(O)cc2c(c1OC)-c1ccc(SC)c(=O)cc1[C@@H](NC(C)=O)CC2` [Compound 40, N-[(7S)-3-hydroxy-1,2-dimethoxy-3-hydroxy-10-methylsulfanyl-9-oxo-5,6,7,9-tetrahydrobenzo[α]heptalen-7-yl]acetamide]: the “Fraction of cells that survive at the highest drug concentrations (Ibot)” value in the test with M006X (Human glioma) (M006X) was 0.061 ± 0.029; in test [4] (MCF-7), 0.459 ± 0.013; in the test on M010B (Human glioma) (M010B) it was 0.118 ± 0.026; in test [5] (CEM), 0.015 ± 0.022; in test [8] (A549), 0.230 ± 0.027; in [9] it was 0.039 ± 0.026. Also, the logIC50 in the test with M006X (Human glioma) (M006X) is recorded as −8.34 ± 0.12 log10 M; in test [4] (MCF-7) it was −7.37 ± 0.11 log10 M; in the test with M010B (Human glioma) (M010B) it was −7.65 ± 0.10 log10 M; in test [5] (CEM) it was −8.47 ± 0.13 log10 M; in [8] (A549), −7.38 ± 0.14 log10 M; in test [9] it was −7.77 ± 0.09 log10 M. In the test on CEM cells (CEM cells, conventional culture), the IC50 was 5.1 ± 1.3 nM. For the same compound, the “IC50 [log10 M] (mean logIC50)” value in [6] (mean over A549, HeLa, MCF-7 and CEM cell lines) is listed as −7.74 ± 0.12 log10 M.

Consider `COc1cc2c(c(OC)c1OC)-c1ccc(SC)c(=O)cc1[C@@H](NC(C)=O)CC2` [Compound 39, N-[(7S)-1,2,3-trimethoxy-10-methylsulfanylo-9-oxo-5,6,7,9-tetrahydrobenzo[α]heptalen-7-yl]acetamide, reference compound], for which the IC50 in [1] was 2 nM; in [10] it was 100000 nM; in test [2], 100 nM; in test [3] it was 7.94 nM; in the test with CEM cells (Homo sapiens, CCRF-CEM), 8.5 nM. Also, the “fold lower IC50 than IC50 of Colchicine” value in the test with CEM cells was “about 5 fold”.

The values above are taken from US9458101B2, “Colchicine derivatives, methods and uses thereof” (priority 2009, dated 2016).
